Reference: the supplement of paper PMC7826260
Some of the results follow. One pool of 16,384 single-stranded DNAs met each Rep nickase domain in vitro at 3 µM enzyme and 37 °C for 1 h; the strands have 90 letters, of which the middle is given. Uncut reads are compared with the no-enzyme pool on a log2 scale; more negative means more cut, near 0 not cut, and no call is made. Counts are relative to all reads; where an enzyme cuts many sequences, the uncut ones exceed 0.

Test system: T1, Rep nickase domain of tomato golden mosaic virus
T1 sequence (residues 1-124, tag not shown): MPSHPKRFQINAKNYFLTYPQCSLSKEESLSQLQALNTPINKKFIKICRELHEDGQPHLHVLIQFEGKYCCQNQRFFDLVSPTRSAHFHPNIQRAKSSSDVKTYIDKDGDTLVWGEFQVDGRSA
Test: uncleaved DNA left, log2 of reads against the no-enzyme library (log2 ratio); higher = less cleavage (more negative = more Rep cleavage of the k-mer); sequences stand for … in CTCGTCCG…ACCGGAGA
Protocol: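 A pool of 90-nt single-stranded DNAs with seven random bases just before the constant AC of the nick site (name = the seven bases) was cut by 3 µM recombinant His6-SUMO-tagged Rep nickase domain (300 nM DNA, 50 mM HEPES pH 8.0, 50 mM NaCl, 1 mM MnCl2, 1 h, 37 °C, three replicates). Uncut DNA was amplified and sequenced.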

Sequence	uncleaved DNA left (log2)
AGCTCTA	0.0697
AGAAGTC	-0.053
CGGAATA	-0.0869
GTCACTT	0.00442
CCGTCTG	-0.0624
CGAAAAC	0.0223
GACCGGT	-0.00381
ACTCCCC	-0.0421
ACGCGCA	-0.154
GTGGCAG	0.0906
GAACTAG	0.0925
CGTTTCT	0.0303
AGAATTC	0.0326
GTTGGGT	0.0228
GTAGACT	-0.0197
GCATCAG	-0.0025
GGGTCAA	-0.00442
CAACCCA	-0.0027
GCCTCGG	-0.0307
ACGCCCA	0.0264

Sequence	uncleaved DNA left (log2)
TTGTAGG	0.0364
GCCACAG	-0.132
CTAGCCC	-0.00601
GTATACG	0.0297
ACAAACG	-0.0454
GTGAGGT	-0.016
AAATAAT	-3.83
CCTCGTT	-0.17
TAATACC	-3.72
TTTCTAG	0.13
GACTAGC	0.0627
AAGGCGG	0.138
GCTTCCC	-0.0601
GCCTTTG	0.0276
TGTAAGA	-0.0253
CTATGCT	-0.28
ATGCTTT	0.0492
GGCAAAC	0.0522
ACAACTT	0.00978
TGGATCA	-0.0195
